Test results from PMC5700166.
The entries are a selection whose mix differs from that of the whole data set. The list includes weakly bound sequences.

Assays:
Assay in all cases: protein-binding microarray (PBM)
Conditions in all cases: PBM: ~300 nM protein, 6 mM HEPES pH 7.8, 80 mM KCl, 0.5 mM EDTA, 0.5 mM EGTA, 6% glycerol, 35 ng/ul poly-dIdC, 1% milk, 1 h, room temperature; Ap Aiptasia and Nv Nematostella (sea anemones) / Co Capsaspora / Aq Amphimedon (sponge) / Dm Drosophila / Hu human; RHD is the Rel homology domain; high values mean tight binding; most listed sequences are background and not binding sites; double strand, one strand shown
GST-Ap-NF-kB RHD = target: T1, GST-Ap-NF-kB RHD (UniProt A0A913YAJ5)
T1 sequence: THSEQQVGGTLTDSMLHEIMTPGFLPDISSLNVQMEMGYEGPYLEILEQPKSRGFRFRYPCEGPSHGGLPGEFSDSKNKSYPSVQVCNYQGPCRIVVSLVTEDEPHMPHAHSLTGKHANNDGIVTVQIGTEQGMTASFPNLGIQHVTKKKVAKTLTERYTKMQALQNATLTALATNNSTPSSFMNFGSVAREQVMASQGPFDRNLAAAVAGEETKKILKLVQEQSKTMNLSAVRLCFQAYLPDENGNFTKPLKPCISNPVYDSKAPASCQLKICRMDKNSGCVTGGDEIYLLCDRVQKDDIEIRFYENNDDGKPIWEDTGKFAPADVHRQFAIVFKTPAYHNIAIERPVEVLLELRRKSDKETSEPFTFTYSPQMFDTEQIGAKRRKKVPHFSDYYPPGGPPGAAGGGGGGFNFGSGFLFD

[1] = target: T2, GST-Nv-NF-kB (Cys allele) (UniProt E5G601)
T2 sequence: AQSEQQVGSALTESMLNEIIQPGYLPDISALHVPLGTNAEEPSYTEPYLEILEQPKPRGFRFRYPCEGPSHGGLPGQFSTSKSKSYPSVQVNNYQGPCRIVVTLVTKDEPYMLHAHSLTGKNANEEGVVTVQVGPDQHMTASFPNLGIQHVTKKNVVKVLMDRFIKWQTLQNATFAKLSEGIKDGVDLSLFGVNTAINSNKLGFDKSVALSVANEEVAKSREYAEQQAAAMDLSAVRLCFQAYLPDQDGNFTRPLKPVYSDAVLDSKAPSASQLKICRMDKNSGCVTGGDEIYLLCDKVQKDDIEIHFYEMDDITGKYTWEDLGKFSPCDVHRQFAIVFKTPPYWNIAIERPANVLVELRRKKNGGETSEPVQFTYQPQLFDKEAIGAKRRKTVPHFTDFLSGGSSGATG

GST-Co-NF-kB = target: T3, GST-Co-NF-kB (UniProt F1ARL5)
T3 sequence: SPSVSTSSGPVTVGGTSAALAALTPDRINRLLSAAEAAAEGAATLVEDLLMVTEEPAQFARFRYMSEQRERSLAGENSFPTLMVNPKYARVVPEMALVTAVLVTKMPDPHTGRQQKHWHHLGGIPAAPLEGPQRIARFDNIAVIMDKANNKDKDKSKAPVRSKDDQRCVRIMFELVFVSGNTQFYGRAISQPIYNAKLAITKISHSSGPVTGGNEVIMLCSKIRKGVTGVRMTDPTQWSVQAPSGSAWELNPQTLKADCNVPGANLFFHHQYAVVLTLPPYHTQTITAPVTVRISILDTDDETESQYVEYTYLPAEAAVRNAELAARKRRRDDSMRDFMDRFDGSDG

GST-Dm-Relish = target: T4, GST-Dm-Relish (UniProt Q94527)
T4 sequence: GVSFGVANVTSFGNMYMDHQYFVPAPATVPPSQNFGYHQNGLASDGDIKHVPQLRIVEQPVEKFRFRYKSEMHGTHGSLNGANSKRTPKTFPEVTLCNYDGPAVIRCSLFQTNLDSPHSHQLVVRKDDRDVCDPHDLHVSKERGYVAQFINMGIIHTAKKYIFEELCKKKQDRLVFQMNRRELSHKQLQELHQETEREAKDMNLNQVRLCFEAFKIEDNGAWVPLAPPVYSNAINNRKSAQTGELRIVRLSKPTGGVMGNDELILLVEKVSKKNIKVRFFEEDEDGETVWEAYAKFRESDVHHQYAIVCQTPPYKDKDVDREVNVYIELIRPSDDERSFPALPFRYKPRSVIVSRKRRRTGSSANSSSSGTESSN

Row | Sequence | binding signal (GST-Ap-NF-kB RHD) [z-score] | binding signal [1] [z-score] | binding signal (GST-Co-NF-kB) [z-score] | binding signal (GST-Dm-Relish) [z-score]
1 | CCGATTAACATCAAAAACTTTCCTGATGTTAATCGGGTCTTGATTCGCTTGACGCTGCTG | 0.569 | 0.779 | 0.573 | 2.34
2 | CCGATTAACATCAGCAACCCCCCTGATGTTAATCGGGTCTTGATTCGCTTGACGCTGCTG | 5.04 | 3.58 | 2.82 | 6.14
3 | CCGATTAACATCAGGAATAGCCCTGATGTTAATCGGGTCTTGATTCGCTTGACGCTGCTG | -0.245 | -0.242 | -0.182 | -0.24
4 | CCGATTAACATCACGGACTGTCCTGATGTTAATCGGGTCTTGATTCGCTTGACGCTGCTG | 0.0815 | 0.267 | -0.58 | -0.00432
5 | CCGATTAACATCACGGGATGCCCTGATGTTAATCGGGTCTTGATTCGCTTGACGCTGCTG | 1.03 | 0.734 | -0.0517 | 5.65
6 | CCGATTAACATCAGTGTCCCGTTTGATGTTAATCGGGTCTTGATTCGCTTGACGCTGCTG | 0.859 | 2.18 | 0.354 | 0.11
7 | CCGATTAACATCAGGTGATCACCTGATGTTAATCGGGTCTTGATTCGCTTGACGCTGCTG | 0.239 | 0.241 | -0.551 | 2.86
8 | CCGATTAACATCAGGAAAGCCCATGATGTTAATCGGGTCTTGATTCGCTTGACGCTGCTG | 1.24 | 0.737 | 0.477 | 4.29
9 | CCGATTAACATCAGGAATCGCCCTGATGTTAATCGGGTCTTGATTCGCTTGACGCTGCTG | 0.0938 | 0.377 | 0.0732 | 0.569
10 | CCGATTAACATCAAGGAACTTCCTGATGTTAATCGGGTCTTGATTCGCTTGACGCTGCTG | -0.315 | -0.463 | 0.0178 | 0.208
11 | CCGATTAACATCAGGGGCTGTACTGATGTTAATCGGGTCTTGATTCGCTTGACGCTGCTG | 2.83 | 3.09 | 0.949 | 3.56
12 | CCGATTAACATCAATAAAATTCCTGATGTTAATCGGGTCTTGATTCGCTTGACGCTGCTG | 0.224 | 0.354 | 0.342 | 1.81
13 | CCGATTAACATCAGAAATGCCCATGATGTTAATCGGGTCTTGATTCGCTTGACGCTGCTG | 0.848 | 0.948 | 0.871 | 0.803
14 | CCGATTAACATCAGGAATTTTCATGATGTTAATCGGGTCTTGATTCGCTTGACGCTGCTG | -0.376 | 0.336 | -0.0386 | 1.12
15 | CCGATTAACATCAGAGAATTTCCTGATGTTAATCGGGTCTTGATTCGCTTGACGCTGCTG | 0.15 | -0.33 | 0.207 | -0.0887
16 | CCGATTAACATCAGGGAATCCACTGATGTTAATCGGGTCTTGATTCGCTTGACGCTGCTG | 3.05 | 3.31 | 2.25 | 7.85
17 | CCGATTAACATCACGGGAATGCCTGATGTTAATCGGGTCTTGATTCGCTTGACGCTGCTG | 1.93 | 2.46 | 1.56 | 3.11
18 | CCGATTAACATCAAGGATTGCCCTGATGTTAATCGGGTCTTGATTCGCTTGACGCTGCTG | 0.6 | 0.299 | 0.277 | 0.595
19 | CCGATTAACATCAAGGAAATTTCTGATGTTAATCGGGTCTTGATTCGCTTGACGCTGCTG | 0.254 | 0.156 | 0.84 | 0.908
20 | CCGATTAACATCAGGGGGTTTTATGATGTTAATCGGGTCTTGATTCGCTTGACGCTGCTG | 9.65 | 9.57 | 3.52 | 10
21 | CCGATTAACATCAAAAATTTCCTTGATGTTAATCGGGTCTTGATTCGCTTGACGCTGCTG | 0.298 | 0.606 | 0.741 | 1.94
22 | CCGATTAACATCAAGGAAGTTCCTGATGTTAATCGGGTCTTGATTCGCTTGACGCTGCTG | -0.154 | 0.0517 | -0.686 | -0.00166
23 | CCGATTAACATCAAGGGGGTTTCTGATGTTAATCGGGTCTTGATTCGCTTGACGCTGCTG | 9.41 | 8.37 | 2.34 | 9.83
24 | CCGATTAACATCACGGGGAAAACTGATGTTAATCGGGTCTTGATTCGCTTGACGCTGCTG | 7.27 | 7.6 | 10.2 | 5.68
25 | CCGATTAACATCAAAATTCCGGATGATGTTAATCGGGTCTTGATTCGCTTGACGCTGCTG | 0.413 | -0.136 | -1.46 | 0.253
26 | CCGATTAACATCAGGACATTCCATGATGTTAATCGGGTCTTGATTCGCTTGACGCTGCTG | -0.163 | -0.244 | 0.116 | 0.35
27 | CCGATTAACATCACGGACTGCCCTGATGTTAATCGGGTCTTGATTCGCTTGACGCTGCTG | 0.443 | 0.0716 | -0.584 | 0.204
28 | CCGATTAACATCAAGGAAAAGCCTGATGTTAATCGGGTCTTGATTCGCTTGACGCTGCTG | -0.0671 | 0.176 | -0.517 | 0.139
29 | CCGATTAACATCAGGAAACTTCCTGATGTTAATCGGGTCTTGATTCGCTTGACGCTGCTG | -0.386 | 0.236 | -0.296 | 0.358
